According to PubChem BioAssay AID662 (National Center for Advancing Translational Sciences (NCATS), 2007):
Among all 71,000 compounds or so, about 1,800 (2.5%) were called active. Inconclusive results, whose numbers are uncertain, are shown with a selection of clear calls. Calls follow the shape of the dose curve; as a rule, active = well fitted activation curve with a large enough effect in the signal ratio, with a control signal flat (not every such curve was filed as active); inconclusive = small, poorly fitted or top-dose-only effect, or effect the other way, or a change in a side signal; inactive = flat fitted curve, though single readings scatter; the % refers to the signal ratio. Where the call is inconclusive, the potency comes from a doubtful curve fit.

experiment: Cell signaling CRE-BLA (Fsk stim); conditions: CHO CRE-bla reporter (cAMP response element driving beta-lactamase), forskolin EC10, beta-lactamase ratio; activity change, negative = inhibition: at 38.2 µM (top of the series) unless noted; as to activity change, negative = inhibition: % of control where 0% means no effect
Method in brief: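 CRE-bla CHO reporter cells treated with compound titration plus EC10 NKH 477 (water-soluble forskolin), incubated 3 h at 37 °C; CCF4 loading 2 h at room temperature, 460/530 nm emission ratio read, AC50 values derived for positive or negative modulators.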
Potency is read from the fitted curve at half-maximal effect; tags tell the direction and shape of the fitted curve.

SMILES | Potency | activity change, negative = inhibition
CCOc1ccc(-c2nnc(N(CC)C(=O)C3CCC3)s2)cc1 | inconclusive: 12.6 µM [rising, single point] | 
COc1ccc(N2CCC(CNC(=O)Nc3ccc(C)c(C)c3)C2)cc1 (stereo not drawn) |  | inactive: 5.01%
O=C(COC(=O)c1ccco1)Nc1ccc2c(c1)OCCO2 |  | inactive: 3.77%
C=CCN(Cc1cc(OC)ccc1OC)S(=O)(=O)N(C)C |  | inactive: -0.079%
Cc1ccc(S(=O)(=O)/C=C\C#N)cc1 | inconclusive: 25.1 µM [rising, single point] | 
COc1ccccc1-c1nc2s/c(=C\c3cccs3)c(=O)n2n1 | inconclusive: 12.6 µM [falling, partial curve] | 
CCCC(=O)OCCNC(=O)c1cc2ccccc2oc1=O |  | inconclusive: 1.77% [at 7.6 µM]
CCCn1c(=O)c2ccccc2n2c(SCc3c(C(=O)OCC)oc4ccccc34)nnc12 |  | inactive: 22.3%
CCCCCCC(=O)N(O)C1CC(=O)N(Cc2ccccc2)C1=O (stereo not drawn) | inconclusive: 10 µM [falling, partial curve] | 
COc1ccccc1CNCc1cc(OC)c(OC)cc1OC |  | inconclusive: 19.2% [at 7.6 µM]
Cc1cc(=O)n2[nH]c(-c3ccc(Cl)cc3)cc2n1 |  | inconclusive: 5.3%
Oc1cccc(Nc2nc(NCC3CCCO3)c3ccccc3n2)c1 (stereo not drawn) |  | inactive: 2.56%
CCC(C)(C)NC(=O)CN(CC1CCCO1)C(=O)CCC(=O)Nc1nccs1 (stereo not drawn) |  | inconclusive: -3.29%
O=C(CN1CC(=O)Oc2ccccc21)OCC(=O)c1ccccc1 |  | inactive: 1.01%
Cc1ccccc1CN1CCN(CC(=O)NCc2ccco2)C1=O | inconclusive: 0.126 µM [rising, full curve, poor fit] | 
COc1ccc(S(=O)(=O)N(C)CC(=O)N2CCCCCC2)cc1OC |  | inconclusive: 24.9%
COc1ccccc1C1/C(=C(/O)c2ccc(Cl)cc2)C(=O)C(=O)N1CCN1CCOCC1 (stereo not drawn) |  | inconclusive: -10.4%
CC(C)NC(=O)N1CCC2(CC1)CCN(S(C)(=O)=O)CC2 |  | inactive: -12.7%
O=C1C(Cl)=C(N2CCOCC2)C(=O)N1c1ccccc1Cl |  | inconclusive: -11.7% [at 7.6 µM]
CC1(C)OC(=O)N(c2ccccn2)C1(C)O (stereo not drawn) |  | inconclusive: -2.41%
Cc1cccn2c(=O)c3cc(C#N)c(=NC(=O)c4ccc5c(c4)OCO5)n(CC(C)C)c3nc12 |  | inconclusive: 18.1%

SMILES | Potency | activity change, negative = inhibition
O=C(CCCCCn1c(=S)[nH]c2cc3c(cc2c1=O)OCO3)N1CCN(Cc2ccccc2)CC1 |  | inconclusive: 17.5%
COc1ccc(N2C(=O)C(Cl)=C(N(CCO)Cc3ccccc3)C2=O)cc1 |  | inactive: -11.6%
Cc1ccc(-c2c(C)c(-c3ccc(F)cc3)nc(N)c2C#N)o1 |  | inconclusive: -20%
CC(C)CNC(=O)c1cc(-c2ccc(Br)cc2)on1 | inconclusive: 25.1 µM [rising, single point] | 
CCN(CC)S(=O)(=O)c1ccc2c3c(cccc13)C(=O)N2 | inconclusive: 10 µM [rising, single point] | 
COc1ccccc1NS(=O)(=O)c1cc(C(=O)NCCN2CCOCC2)ccc1Cl |  | inactive: -8.29%
Cc1cccn2cc(CNC(=O)C3CCCCC3)nc12 |  | inconclusive: 5.48%
O=C(NCC(c1cccnc1)N1CCOCC1)Nc1ccccc1 (stereo not drawn) |  | inconclusive: 9.58%
Cc1cccc(NC(=O)C2CCN(S(=O)(=O)c3cccc4nsnc34)CC2)n1 | inconclusive: 0.00794 µM [falling, full curve, poor fit] | 
CCn1nc(C(=O)OCC(=O)N2CCc3ccccc32)c2ccccc2c1=O | inconclusive: 10 µM [rising, single point] | 
CC(C(=O)Nc1cccnc1)N1C(=O)C2C3C=CC(C3)C2C1=O (stereo not drawn) |  | inconclusive: -0.218%
CNc1cc(NS(=O)(=O)c2ccc(N)cc2)nc(NC)n1 |  | inactive: 13.9%
CCCCCC(=O)Nc1ccc2oc(-c3ccncc3)nc2c1 | inconclusive: 25.1 µM [rising, single point] | 
CCCCn1c(NCCC)nc2c1c(=O)[nH]c(=O)n2C | active: 2.51 µM | 
COc1ccc(-c2ccc(CCC(=O)O)n2C(C)C)cc1 |  | inactive: 2.99%
O=C(CSc1nnc(-c2ccncc2)n1CC1CCCO1)NCc1ccccc1 (stereo not drawn) |  | inconclusive: 8.12%
COc1cc(NC(=O)C2CCN(S(=O)(=O)c3cccc4nonc34)CC2)cc(OC)c1 |  | inconclusive: -27.4%
COc1ccc(-c2nc3cnc(OC)nc3n(CCC#N)c2=O)cc1 |  | inconclusive: 8.55%
COC(=O)c1ccc(CSc2nnnn2-c2ccccc2)o1 | inconclusive: 3.98 µM [falling, full curve] | 
O=C(c1cc(-c2ccc(Cl)cc2)on1)N1CCOCC1 |  | inconclusive: 22.1%
CCOC(=O)CNC(=O)CSc1nc(N(C)C)nc(N2CCOCC2)n1 |  | inconclusive: 14.9%

SMILES | Potency | activity change, negative = inhibition
COc1ccc(C)cc1NC(=O)CSc1nnc(COc2ccc(Cl)cc2)n1Cc1ccco1 |  | inconclusive: 4.42%
C[C@@H](C(=O)N[C@@H](CO)Cc1ccccc1)[C@H]1C[C@]1(C)[C@H](NC(=O)OCc1ccccc1)c1ccccc1 |  | inactive: -22.9%
COc1ccc(Oc2ncc3nc(-c4ccc(OC)cc4)c(=O)n(Cc4cccs4)c3n2)cc1 | inconclusive: 12.6 µM [rising, partial curve] | 
CN/S(=N/S(=O)(=O)c1ccccc1)c1ccc(C)cc1 (stereo not drawn) |  | inconclusive: -5.34%
Cc1ccc(-n2cccc2C(=S)N=P(N(C)C)(N(C)C)N(C)C)cc1 | inconclusive: 3.98 µM [falling, single point] | 
COC(=O)c1cc(NC2c3ccccc3C(=O)N2c2cccnc2)cc(C(=O)OC)c1 (stereo not drawn) |  | inactive: 20.4%
CC(C)C(CO)NC(=O)CC(=O)NC(CO)C(C)C (stereo not drawn) |  | inconclusive: 10.2% [at 7.6 µM]
CN(C)CCC[C@@H]1c2ccccc2Oc2ccc(C(F)(F)F)cc21 |  | inactive: -8.38% [at 7.6 µM]
Cc1ccc(-n2ncc3c(=O)n(CC(=O)NCc4ccco4)cnc32)cc1C |  | inactive: 4.38%
CC(=O)Nc1sc2c(c1C#N)CCCCC2 |  | inconclusive: 15.7%
O=C(c1cc2nc(-c3ccco3)cc(C(F)(F)F)n2n1)N1CCc2ccccc2C1 | inconclusive: 15.8 µM [rising, partial curve] | 
CCOC(=O)c1cc2sccc2n1CCCN1C(=O)c2ccccc2C1=O | inconclusive: 10 µM [rising, single point] | 
O=C(NCc1ccc2c(c1)OCO2)c1cc2ncc(Br)cn2n1 |  | inactive: -2.1%
O=C1CCCC(O)=C1C(C#Cc1ccccc1)C1=C(O)CCCC1=O |  | inactive: 0.447%
CCCCOc1ncnc2c1[nH]c1ccc(F)cc12 | active: 1 µM | 
O=C(CCN1CCCC1)Nc1cccc(Br)c1 |  | inconclusive: 7.14%
Cn1cnc2c1c(=O)n(Cc1cccc(Br)c1)c(=O)n2C | inconclusive: 25.1 µM [rising, single point] | 
Cc1cc(C)n(CCO)c(=O)n1 |  | inconclusive: 7.1%
COc1ccccc1N1CCN(C(=O)c2cc(-c3cccs3)on2)CC1 |  | inconclusive: 0.517%
CC1=C(C(=O)Nc2ccc(C)cc2)C(c2ccc(C)o2)C2=C(CC(C)(C)CC2=O)N1 (stereo not drawn) |  | inactive: -10.8%
COc1cccc(C2=NOC(C(=O)NCc3ccco3)C2)c1 (stereo not drawn) | inconclusive: 12.6 µM [rising, single point] | 

SMILES | Potency | activity change, negative = inhibition
CCN(CC)P1(=O)OC(c2cc(OC)c(OC)c(OC)c2)=Nc2c1c(C)nn2-c1ccccc1 (stereo not drawn) |  | inconclusive: 16.2%
Cc1cc(NC(=O)Cn2c(=O)c3c(ncn3CCC(C)C)n(Cc3ccccc3)c2=O)no1 | inconclusive: 3.16 µM [falling, single point] | 
C[C@@]12CCC(=O)C=C1CC[C@@H]1[C@@H]2[C@H](O)C[C@]2(C)[C@@H]1CC[C@]2(O)C(=O)COC(=O)CCC(=O)O |  | inactive: 3.78%
N=c1sc2ccccc2n1-c1ccccc1 |  | inconclusive: 15.1%
CN(C)c1ncc2nc(-c3cc(F)cc(F)c3)c(=O)n(CCc3ccccc3)c2n1 | inconclusive: 2.51 µM [rising, partial curve] | 
C=CCc1cc(C(=O)N2CCCCC2)ccc1O |  | inconclusive: -15.7%
CCCC1CC(c2csc(N)n2)CCO1 (stereo not drawn) | inconclusive: 12.6 µM [falling, single point] | 
CCOC(=O)CC(=O)c1cc(OC)c(OC)c(OC)c1 | inconclusive: 6.31 µM [rising, partial curve] | 
COc1ccccc1-c1cncnc1N1CCN(C)CC1 |  | inactive: -3.37%
Oc1ccc(Nc2nc(-c3ccc(O)cc3)cs2)cc1 | inconclusive: 15.8 µM [falling, partial curve] | 
O=C(COc1ccc2c3c(c(=O)oc2c1)CCC3)c1ccc2c(c1)OCO2 | inconclusive: 1 µM [rising, partial curve, poor fit] | 
Cn1nnnc1SCC(=O)Nc1cc(C(C)(C)C)nn1-c1ccccc1 | inconclusive: 3.16 µM [falling, single point] | 
Cn1c(-c2ccc(C(=O)c3ccccc3)s2)nc2ccccc21 | active: 2 µM | 
Cc1ccc(-c2nn(CC(=O)NCCN3CCOCC3)c(=O)c3ccccc23)cc1 |  | inactive: -6.29%
C1CCC(Nc2nnnn2C2CCCCC2)CC1 |  | inactive: 5.59%
O=C(NCCSc1c[nH]c2ccccc12)c1ccco1 |  | inactive: -12%
COc1cc(NC(=O)c2cccc(Cl)c2)c(OC)cc1NC(=O)CN1CCOCC1 | inconclusive: 5.01 µM [rising, partial curve] | 
CCOC(=O)C(NC(=O)CC)(Nc1ccc(S(=O)(=O)Nc2cc(C)on2)cc1)C(F)(F)F (stereo not drawn) |  | inconclusive: 12.8%
CCOc1ccccc1NC(=O)c1cc(CC(C)C)oc1C |  | inactive: 26.4%
COCCNC(=O)COc1ccc(C)c(C)c1 |  | inconclusive: 18.7% [at 7.6 µM]
